Results reported in patent US20160177276A1 (Merck KGaA, published 2016).

Key:
[1] = biological target: T1, CD20 (human, UniProt P11836 1-297); assay: flow cytometry on cells that carry both CD20 and CD47
T1 construct: whole, on cells; The cells carry CD47 as well
T1 sequence (looked up): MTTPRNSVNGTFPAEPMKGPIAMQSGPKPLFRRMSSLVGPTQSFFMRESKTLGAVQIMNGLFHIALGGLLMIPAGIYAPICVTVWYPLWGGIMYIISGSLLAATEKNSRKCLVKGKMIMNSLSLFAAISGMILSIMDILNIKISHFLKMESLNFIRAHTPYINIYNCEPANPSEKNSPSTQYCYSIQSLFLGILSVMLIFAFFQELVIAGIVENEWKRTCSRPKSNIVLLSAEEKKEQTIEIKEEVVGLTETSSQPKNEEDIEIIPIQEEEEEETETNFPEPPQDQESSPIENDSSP

[2] = biological target: T2, CD47 (human, UniProt Q08722); assay: flow cytometry on CD47-transfected CHO cells and leukocyte-enriched whole blood
T2 construct: whole, on cells; Human by the cells used (blood of human donors; human Ramos, A549, BT474, Raji, Namalwa cells); also called human CD47
Experimental: (§1) After washing again, cells were fixed with 1% formaldehyde in PBS. Cells were analyzed by flow cytometry (MACSQuant, Miltenyi Biotec, Cologne, Germany).
as §1

[3] = biological target: T3, CD47 on mouse A20 cells (mouse, UniProt Q61735 19-303); assay: flow cytometry on mouse A20 cells that carry both PD-L1 and CD47
T3 construct: whole, on cells; Mouse by the cell line
T3 sequence (looked up): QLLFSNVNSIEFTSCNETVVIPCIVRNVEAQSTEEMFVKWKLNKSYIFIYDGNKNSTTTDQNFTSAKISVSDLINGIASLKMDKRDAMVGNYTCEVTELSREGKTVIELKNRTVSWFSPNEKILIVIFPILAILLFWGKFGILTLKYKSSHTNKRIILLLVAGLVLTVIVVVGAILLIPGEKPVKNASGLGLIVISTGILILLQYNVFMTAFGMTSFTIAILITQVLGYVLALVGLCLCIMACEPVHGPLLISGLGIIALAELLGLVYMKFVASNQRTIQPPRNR
Experimental: After washing with PBS+1% FBS, cells were incubated with FITC F(ab′)2 goat Anti-Human IgG, Fcγ (Jackson ImmunoResearch, West Grove, Pa.), diluted 1:200 in PBS+1% FBS for 60 min on ice. After washing again, cells were fixed with 1% formaldehyde in PBS. Cells were analyzed by flow cytometry (MACSQuant, Miltenyi Biotec, Cologne, Germany).

[4] = biological target: T2, CD47; assay: flow cytometry on CD47-transfected CHO cells, data not shown
Experimental: as §1

B1: anti-CD20-huIgG1-SIRPαV2 (other)
heavy: QVQLQQPGAELVKPGASVKMSCKASGYTFTSYNMHWVKQTPGRGLEWIGAIYPGNGDTSYNQKFKGKATLTADKSSSTAYMQLSSLTSEDSAVYYCARSTYYGGDWYFNVWGAGTTVTVSAASTKGPSVFPLAPSSKSTSGGTAALGCLVKDYFPEPVTVSWNSGALTSGVHTFPAVLQSSGLYSLSSVVTVPSSSLGTQTYICNVNHKPSNTKVDKRV[letters of human IgG1 Fc omitted]GGGGSGGGGSGGGGSGGGGSEE[letters of about 120 residues omitted]
light: QIVLSQSPAILSASPGEKVTMTCRASSSVSYIHWFQQKPGSSPKPWIYATSNLASGVPVRFSGSGSGTSYSLTISRVEAEDAATYYCQQWTSNPPTFGGGTKLEIKRTVAAPSVFIFPPSDEQLKSGTASVVCLLNNFYPREAKVQWKVDNALQSGNSQESVTEQDSKDSTYSLSSTLTLSKADYEKHKVYACEVTHQGLSSPVTKSFNRGEC
notes: Antibody-SIRPα fusion (2B8/rituximab, IgV domain of SIRPαV2 on the heavy chain C-terminus by a (G4S)4 linker); tetramer
[1]
  binding result: binds
[2]
  binding result: binds

B2: anti-PD-L1-huIgG1-muSIRPα (other)
heavy: EVQLLESGGGLVQPGGSLRLSCAASGFTFSSYIMMWVRQAPGKGLEWVSSIYPSGGITFYADTVKGRFTISRDNSKNTLYLQMNSLRAEDTAVYYCARIKLGTVTTVDYWGQGTLVTVSS[letters of human IgG1 constant region omitted]GGGGSGGGGSGGGGSGGGGSKELKVTQPEKSVSVAAGDSTVLNCTLTSLLPVGPIKWYRGVGQSRLLIYSFTGEHFPRVTNVSDATKRNNMDFSIRISNVTPEDAGTYYCVKFQKGPSEPDTEIQSGGGTEVYVL
light: QSALTQPASVSGSPGQSITISCTGTSSDVGGYNYVSWYQQHPGKAPKLMIYDVSNRPSGVSNRFSGSKSGNTASLTISGLQAEDEADYYCSSYTSSSTRVFGTGTKVTVLGQPKANPTVTLFPPSSEELQANKATLVCLISDFYPGAVTVAWKADGSPVKAGVETTKPSKQSNNKYAASSYLSLTPEQWKSHRSYSCQVTHEGSTVEKTVAPTECS
notes: Antibody-SIRPα fusion based on avelumab, with the IgV domain of murine SIRPα
[3]
  binding result: binds

B3: Fc-SIRPαV2CC (Fc fusion)
chain: [letters of human IgG1 Fc with C220S (EU numbers) omitted]GGGGSGGGGSGGGGSGGGGSEE[letters of about 120 residues omitted]KPSAPVVSGPAARATPQHTVSFTCESHGFSPRDITLKWFKNGNELSDFQTNVDPVGESVSYSIHSTAKVVLTREDVHSQVICEVAHVTLQGDPLRGTANLSETIRVPPTLEVTQQPVRAENQVNVTCQVRKFYPQRLQLTWLENGNVSRTETASTVTENKDGTYNWMSWLLVNVSAHRDDVKLTCQVEHDGQPAVSKSHDLKVSAHPKEQGSNTAAENTGSNERNIY
notes: Fc fusion whose SIRPα ECD has the IgV domain of allele V2 joined to the IgC domains of allele V1
[4]
  binding result: binds
